PubChem BioAssay AID651820 (National Center for Advancing Translational Sciences (NCATS), 2012)
Hit rate of the full screen: of about 340,000 compounds, about 12,000 (3.5%) were called active. This list was built around the results that the source calls inconclusive (neither active nor inactive); the mix of calls is not that of the screen. The call rests on the fitted dose curve; in most records, active means well fitted inhibition curve with a large enough effect; inconclusive means small, poorly fitted or top-dose-only effect, or another doubt; inactive means no such curve, though single readings can be large or run the other way. Potencies of inconclusive entries are left out as doubtful fits. The source holds several records for some structures; these can differ, active in one and inactive in another.
On the % scale 0 is the no-effect control and ±100 the full control effect; potency means the concentration at half of the fitted maximal effect; tags describe the fitted curve by direction and shape.

Assay: qHTS Assay for Inhibitors of Hepatitis C Virus (HCV)
Conditions: Huh7.5.1 HCVcc-Cre (HCVcc is cell-culture hepatitis C virus) infection, luciferase reporter, 44 h; activity change, negative = inhibition: at 41.8 µM (top of the series)
In short: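 Cells seeded at 1,000/well and cultured 4 h, then compounds added followed by HCVcc-Cre virus (~0.5 moi). After 44 h further culture, luciferase substrate was added, plates held 15 min at room temperature, and luminescence read for 15 sec.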
For `COc1ccc(-c2nc(-c3ccc(NC(=O)c4ccncc4)cc3)no2)cc1OC`, the Potency was inconclusive [inhibitor, partial curve]. In the case of `COc1ccc(OC)c(Nc2nc(N)nc(CCl)n2)c1`, the Potency is reported as active: 3.98 µM. With `CC(C)CC(=O)NC(=S)Nc1cccc(NC(=O)c2ccccc2)c1` the Potency was inconclusive [inhibitor, partial curve]. With `COc1cccc(CC(=O)Nn2c(C)nc3ccccc3c2=O)c1` the “activity change, negative = inhibition” value was inactive: 4.43%. In the case of `O=C(CN1CCN(S(=O)(=O)c2ccc(Br)cc2)CC1)N/N=C/c1ccc(Br)s1`, the Potency is reported as inconclusive [inhibitor, single point]. For `CCc1ccccc1Nc1nc2ccccc2[nH]1`, the Potency was inconclusive [inhibitor, single point]. With `O=C(Nc1ccc(Cl)c(Cl)c1)c1cccc(S(=O)(=O)NCc2cccnc2)c1` the Potency was active: 14.1 µM. In the case of `Cc1csc(NC(=O)c2ccc(Cn3nc(C)c(Br)c3C)o2)n1`, the Potency is reported as active: 10 µM. In the case of `COc1cc(-c2noc(C)c2C#CC2(O)CCCCC2)cc(OC)c1OC`, the Potency is reported as inconclusive [inhibitor, partial curve]. In the case of `CCNC(=O)C1Cc2ccccc2CN1S(=O)(=O)c1ccc(F)cc1` (stereo unspecified), the “activity change, negative = inhibition” value is reported as inactive: 6.17%. With `CC(C)C(=O)Nc1cccc(NC(=S)NC(=O)c2ccc(Cl)cc2)c1` the Potency was inconclusive [inhibitor, partial curve]. In the case of `Cc1cc(C)cc(NC(=O)COC(=O)CN=C2NS(=O)(=O)c3ccccc32)c1`, the “activity change, negative = inhibition” value is reported as inactive: -3.99%. In the case of `O=C1Nc2cc(Cl)cnc2N2CCCC12` (stereo unspecified), the Potency is reported as inconclusive [inhibitor, partial curve]. In the case of `CSCCC(N=C1NS(=O)(=O)c2ccccc21)C(=O)NCCc1ccccc1` (stereo unspecified), the Potency is reported as inconclusive [inhibitor, single point]. For `Cc1ccc(Cl)cc1NC(=O)CON=C(N)c1ccccc1`, the Potency was inconclusive [inhibitor, single point]. With `O=C(NCc1cccnc1)c1cc(-c2ccccc2)on1` the “activity change, negative = inhibition” value was inactive: 3.27%. In the case of `Cc1ccc(OCCN2CCN(CC(O)Cn3c4ccccc4c4ccccc43)CC2)cc1` (stereo unspecified), the Potency is reported as inconclusive [inhibitor, single point]. In the case of `COCCNc1cc(C)nc2c(-c3ccccc3OC)c(C)nn12`, the Potency is reported as inconclusive [inhibitor, single point]. For `C[C@H]1CCC/C=C/[C@@H]2C[C@H](O)C[C@H]2[C@H](O)/C=C/C(=O)O1`, the Potency was active: 0.562 µM. For `Fc1ccc(C(c2ccc(F)cc2)N2CCN(C/C=C/c3ccccc3)CC2)cc1`, the Potency was active: 1.58 µM and the activity change, negative = inhibition was inactive: 8.14% [at 8.37 µM]. For `COc1cc(OC)cc(-c2c(-c3cccs3)c3cc(-c4cnc(N)nc4)ccc3n2C)c1`, the Potency was inconclusive [inhibitor, single point]. With `O=[N+]([O-])c1ccccc1/C=N/N1CCN(Cc2ccccc2)CC1` the “activity change, negative = inhibition” value was inactive: 11%. For `Nc1ccccc1C(=O)NNC1=C(C(=O)C(F)(F)F)CCC1`, the Potency was inconclusive [inhibitor, single point]. With `COc1ccc(/C=N/NC(N)=S)cc1` the Potency was inconclusive [inhibitor, single point]. For `Cc1ccc(NCCCn2cnc3c(OCc4ccccc4)ncnc32)cc1C`, the Potency was inconclusive [inhibitor, partial curve]. With `COC(=O)CN1C(=O)[C@H]2[C@@H](/C=C/c3ccccc3)N3C(=O)CN(CCO)C(=O)[C@@]3(Cc3ccccc3)[C@H]2C1=O` the Potency was inconclusive [inhibitor, partial curve, poor fit]. In the case of `Nc1c(C(=O)CSc2nc3ccccc3o2)c(=O)[nH]c(=O)n1C1CC1`, the Potency is reported as inconclusive [inhibitor, partial curve]. In the case of `O=C(c1ccccc1)N1CCN(C(=O)c2nn3c(C(F)(F)F)cc(-c4ccco4)nc3c2Cl)CC1`, the Potency is reported as inconclusive [inhibitor, partial curve, poor fit]. For `O=C(Nc1cnn(Cc2ccccc2)c1)c1cc2nc(-c3ccco3)cc(C(F)(F)F)n2n1`, the Potency was inconclusive [inhibitor, full curve]. With `COc1ccc(CCC(C)NC2C3CC4CC(C3)CC2C4)cc1` (stereo unspecified) the Potency was inconclusive [inhibitor, single point]. For `CC(C)C[C@H](NC(=O)c1[nH]cnc1C(=O)N[C@@H](C)C(=O)OC(C)(C)C)C(=O)OC(C)(C)C`, the “activity change, negative = inhibition” value was inactive: -26.4%. With `Cc1nn(C(C)C)c(C)c1CN1CCCC(C(=O)c2cccc(OC(C)C)c2)C1` (stereo unspecified) the Potency was inconclusive [inhibitor, single point]. With `CC(C)Cn1c(N)c(C(=O)COC(=O)C2=COCCO2)c(=O)n(C)c1=O` the Potency was inconclusive [inhibitor, single point]. For `COc1ccc(Oc2nc(-c3ccncc3)nc3ccccc23)cc1`, the Potency was inconclusive [inhibitor, full curve]. For `COc1ccc(C(C)=O)cc1COc1ccc(-n2cnnn2)cc1`, the Potency was active: 10 µM. For `O=C(OCC(=O)c1c[nH]c2ccccc12)c1cccc([N+](=O)[O-])c1`, the “activity change, negative = inhibition” value was inactive: -0.0505%. For `CN1CCc2c(c3ccccc3n2Cc2ccccc2)C1`, the Potency was “inactive”. For `O=C(Nc1cccc(Cl)c1)N1CCCCCC1`, the “activity change, negative = inhibition” value was inactive: -6.21%. In the case of `CCOC(=O)COc1cc(=O)n(CC)c2ccccc12`, the Potency is reported as inconclusive [inhibitor, single point]. With `Cc1ccc(-n2cc(CNCCN3CCOC3=O)c(-c3cccc(C)c3)n2)cc1` the “activity change, negative = inhibition” value was inactive: -6.45%. With `CN(CC(=O)Nc1cccnc1)S(=O)(=O)c1cc(Cl)ccc1Cl` the Potency was inconclusive [inhibitor, full curve]. In the case of `Cc1ccc(/C=N/Nc2nncc(-c3ccccc3)n2)o1`, the Potency is reported as inconclusive [inhibitor, single point]. For `Nc1cc[n+](CC(=O)c2ccccc2)cc1`, the Potency was inconclusive [inhibitor, full curve]. For `CCCC(=O)N(CCN1CCOCC1)c1nc2cc(C)c(C)cc2s1`, the “activity change, negative = inhibition” value was inactive: 7.15%. In the case of `CCC(C)Nc1nc(C)nc2c1oc1ccccc12` (stereo unspecified), the Potency is reported as inconclusive [inhibitor, single point].
